Experimental data from the supplement of paper PMC3334620.
Whole data set: some 33,000 sequences, median “E-score (-0.5 to 0.5)” near -0.054, cut for the highest 2% near 0.35. This is one part of the list.

These sequences were tested against T1, Stb5 (UniProt P38699) (assay: PBM E-score (8-mer binding enrichment) (E-score (-0.5 to 0.5)); higher = stronger / more preferred TF binding; most listed sequences are background and not binding sites). Conditions: protein concentration: 200 nM; construct: GST-full length.
T1 sequence: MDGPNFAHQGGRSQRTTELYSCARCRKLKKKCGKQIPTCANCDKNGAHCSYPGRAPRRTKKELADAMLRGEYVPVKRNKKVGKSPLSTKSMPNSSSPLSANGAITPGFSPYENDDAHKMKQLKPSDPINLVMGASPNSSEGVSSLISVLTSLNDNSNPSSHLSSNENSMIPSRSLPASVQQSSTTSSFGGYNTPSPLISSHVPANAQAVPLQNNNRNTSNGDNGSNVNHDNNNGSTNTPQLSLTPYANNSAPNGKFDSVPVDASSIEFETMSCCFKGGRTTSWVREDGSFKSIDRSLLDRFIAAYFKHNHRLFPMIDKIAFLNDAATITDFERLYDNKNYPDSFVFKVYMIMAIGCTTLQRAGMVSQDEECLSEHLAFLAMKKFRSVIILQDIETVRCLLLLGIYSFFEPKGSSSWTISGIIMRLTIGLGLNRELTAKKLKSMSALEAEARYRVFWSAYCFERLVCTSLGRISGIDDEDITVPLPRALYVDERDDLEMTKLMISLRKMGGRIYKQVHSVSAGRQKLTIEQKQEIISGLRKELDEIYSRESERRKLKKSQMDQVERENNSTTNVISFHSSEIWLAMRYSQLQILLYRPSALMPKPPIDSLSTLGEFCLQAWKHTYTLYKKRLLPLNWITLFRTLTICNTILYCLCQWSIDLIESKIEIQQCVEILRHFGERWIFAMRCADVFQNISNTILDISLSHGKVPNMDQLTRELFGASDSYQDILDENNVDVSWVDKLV
How it was run: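 For each ungapped eight-base word taken together with its reverse complement, the Universal PBM Analysis Suite assigned an E-score. Binding data came from GST-tagged yeast transcription factors, applied at about 100-200 nM, on universal all-10-mer Agilent arrays made double-stranded by primer extension. Fluorescent anti-GST marked bound protein, and scans were normalised with masliner.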

**Q.** How did the “PBM E-score” value turn out when TCACACAA was run?
**A.** -0.366

**Q.** How did the “PBM E-score” value turn out when GAATCTGA was run?
**A.** -0.0628

**Q.** ACAGGGAG was tested. Which “PBM E-score” value did it give?
**A.** -0.0371

**Q.** Which “PBM E-score” value does the source give for GGCTGTCA here?
**A.** -0.228

**Q.** With CCGAACTC as the sequence, how does the “PBM E-score” value read?
**A.** 0.0675

**Q.** With AGTGCAGG as the sequence, how does the “PBM E-score” value read?
**A.** -0.176

**Q.** How did the “PBM E-score” value turn out when AGATACCA was run?
**A.** -0.0825

**Q.** How did the “PBM E-score” value turn out when CCATGTAA was run?
**A.** 0.0972

**Q.** How did the “PBM E-score” value turn out when ACTCTCAT was run?
**A.** -0.155

**Q.** How did the “PBM E-score” value turn out when AGCGGAAA was run?
**A.** 0.152

**Q.** ATACCTTA was tested. Which “PBM E-score” value did it give?
**A.** 0.00381

**Q.** TAAGGCAA was tested. Which “PBM E-score” value did it give?
**A.** -0.133

**Q.** With AGTGTTAG as the sequence, how does the “PBM E-score” value read?
**A.** -0.243

**Q.** How did the “PBM E-score” value turn out when TCAGGCCA was run?
**A.** -0.064

**Q.** How did the “PBM E-score” value turn out when CCACGGCA was run?
**A.** 0.151

**Q.** AGTCATTG was tested. Which “PBM E-score” value did it give?
**A.** -0.27

**Q.** With AGAGATTA as the sequence, how does the “PBM E-score” value read?
**A.** -0.226

**Q.** For ACCCGACG, which “PBM E-score” value is on record?
**A.** 0.287

**Q.** With GCGCCTAA as the sequence, how does the “PBM E-score” value read?
**A.** 0.0692

**Q.** For ACTAACCA, which “PBM E-score” value is on record?
**A.** -0.168

**Q.** With CATAGGAG as the sequence, how does the “PBM E-score” value read?
**A.** -0.203

**Q.** Which “PBM E-score” value does the source give for CACCGAAA here?
**A.** 0.305

**Q.** With ATCTGCGG as the sequence, how does the “PBM E-score” value read?
**A.** 0.257

**Q.** For ACCAATTG, which “PBM E-score” value is on record?
**A.** -0.147

**Q.** Which “PBM E-score” value does the source give for CTCACAGC here?
**A.** -0.053

**Q.** With AGAACCGG as the sequence, how does the “PBM E-score” value read?
**A.** 0.337

**Q.** For ATCCCCAG, which “PBM E-score” value is on record?
**A.** -0.132

**Q.** ACGCCTCC was tested. Which “PBM E-score” value did it give?
**A.** -0.0993

**Q.** With AAATCCTA as the sequence, how does the “PBM E-score” value read?
**A.** 0.0685

**Q.** With ACTGAAGA as the sequence, how does the “PBM E-score” value read?
**A.** -0.0507

**Q.** Which “PBM E-score” value does the source give for AGGGGGAG here?
**A.** -0.185

**Q.** How did the “PBM E-score” value turn out when AGCCGTTG was run?
**A.** -0.044

**Q.** Which “PBM E-score” value does the source give for CCCGGCGC here?
**A.** 0.231

**Q.** For CCGTTGCC, which “PBM E-score” value is on record?
**A.** 0.221

**Q.** With ATCTGAAT as the sequence, how does the “PBM E-score” value read?
**A.** -0.103

**Q.** How did the “PBM E-score” value turn out when AAAGTTTC was run?
**A.** -0.23

**Q.** For GGCAATGA, which “PBM E-score” value is on record?
**A.** -0.223

**Q.** How did the “PBM E-score” value turn out when CAGGTGAG was run?
**A.** -0.302

**Q.** With GAGTCGCA as the sequence, how does the “PBM E-score” value read?
**A.** -0.194

**Q.** Which “PBM E-score” value does the source give for GGCCCCAC here?
**A.** -0.111

**Q.** Which “PBM E-score” value does the source give for CTGACTTC here?
**A.** 0.00183

**Q.** How did the “PBM E-score” value turn out when CACGCTGG was run?
**A.** -0.14

**Q.** CAAGTACA was tested. Which “PBM E-score” value did it give?
**A.** -0.12

**Q.** For CATCAGGG, which “PBM E-score” value is on record?
**A.** -0.278

**Q.** With AGCAACCG as the sequence, how does the “PBM E-score” value read?
**A.** 0.0278

**Q.** CCGATCCA was tested. Which “PBM E-score” value did it give?
**A.** 0.181

**Q.** Which “PBM E-score” value does the source give for AATCGGCC here?
**A.** 0.234

**Q.** With GGTGATTA as the sequence, how does the “PBM E-score” value read?
**A.** 0.285

**Q.** AACGGGCT was tested. Which “PBM E-score” value did it give?
**A.** 0.238

**Q.** With ACCCTCCA as the sequence, how does the “PBM E-score” value read?
**A.** -0.252

**Q.** How did the “PBM E-score” value turn out when AACTTGCG was run?
**A.** 0.116

**Q.** ATCAGACA was tested. Which “PBM E-score” value did it give?
**A.** -0.121

**Q.** How did the “PBM E-score” value turn out when CTAGTTAC was run?
**A.** -0.0323

**Q.** GTACATTA was tested. Which “PBM E-score” value did it give?
**A.** -0.0599

**Q.** With AAGGATTA as the sequence, how does the “PBM E-score” value read?
**A.** -0.202

**Q.** AGGTTGAC was tested. Which “PBM E-score” value did it give?
**A.** -0.0996

**Q.** For CTAATAAG, which “PBM E-score” value is on record?
**A.** -0.149

**Q.** Which “PBM E-score” value does the source give for ACCTGCAT here?
**A.** -0.0696

**Q.** With ATCCTCAT as the sequence, how does the “PBM E-score” value read?
**A.** -0.308

**Q.** For GGTCCGCA, which “PBM E-score” value is on record?
**A.** 0.191

**Q.** Which “PBM E-score” value does the source give for AGGCAGTC here?
**A.** -0.149

**Q.** Which “PBM E-score” value does the source give for CCTTCTCC here?
**A.** -0.235

**Q.** For CCAACGTC, which “PBM E-score” value is on record?
**A.** -0.0945

**Q.** AACGAAGC was tested. Which “PBM E-score” value did it give?
**A.** -0.141

**Q.** For CGACACGA, which “PBM E-score” value is on record?
**A.** 0.112

**Q.** How did the “PBM E-score” value turn out when CTCAATTA was run?
**A.** -0.146

**Q.** With ACTAGCAT as the sequence, how does the “PBM E-score” value read?
**A.** -0.237

**Q.** How did the “PBM E-score” value turn out when CAGACGGA was run?
**A.** 0.297

**Q.** Which “PBM E-score” value does the source give for ACATATTC here?
**A.** -0.192

**Q.** AAACCTGT was tested. Which “PBM E-score” value did it give?
**A.** -0.166

**Q.** AAGGCATG was tested. Which “PBM E-score” value did it give?
**A.** -0.275

**Q.** How did the “PBM E-score” value turn out when AGGCGTAA was run?
**A.** -0.14

**Q.** How did the “PBM E-score” value turn out when CGCATACC was run?
**A.** 0.199

**Q.** How did the “PBM E-score” value turn out when GTAGCATA was run?
**A.** -0.00706

**Q.** TTAAAAAA was tested. Which “PBM E-score” value did it give?
**A.** -0.124

**Q.** Which “PBM E-score” value does the source give for CGAGCGAG here?
**A.** -0.0911

**Q.** How did the “PBM E-score” value turn out when GTAAGGAA was run?
**A.** -0.242

**Q.** How did the “PBM E-score” value turn out when CGTAATAC was run?
**A.** 0.172

**Q.** CCGCTGGA was tested. Which “PBM E-score” value did it give?
**A.** 0.233

**Q.** For ACCCCGTG, which “PBM E-score” value is on record?
**A.** 0.367

**Q.** With ATTATTCG as the sequence, how does the “PBM E-score” value read?
**A.** 0.0321

**Q.** Which “PBM E-score” value does the source give for ATAAACAA here?
**A.** -0.0366

**Q.** With CTCATGAA as the sequence, how does the “PBM E-score” value read?
**A.** -0.0191

**Q.** With AGTTTGTG as the sequence, how does the “PBM E-score” value read?
**A.** -0.0549

**Q.** With CTCCTTCA as the sequence, how does the “PBM E-score” value read?
**A.** -0.187

**Q.** Which “PBM E-score” value does the source give for CAGGGGCA here?
**A.** -0.2
